According to the supplement of paper PMC4604168 (melanoma cell lines):
This is one part of the list. Single values are uncertain, as repeats are few or missing.

What was measured:
Assay in all cases: cell count relative to DMSO control; melanoma cells; higher = more viable cells
Conditions in all cases: library dose: low library concentration; 72 h
MZ2-MEL = test system: MZ2-MEL
MeWo = test system: MeWo
RPMI7951 = test system: RPMI7951
RVH-421 = test system: RVH-421
SkMel28 = test system: SkMel28
SkMel2 = test system: SkMel2
SkMel30 = test system: SkMel30
SkMel5 = test system: SkMel5
UACC257 = test system: UACC257
UACC62 = test system: UACC62
WM115 = test system: WM115
WM1716 = test system: WM1716
WM1745 = test system: WM1745
WM3526 = test system: WM3526
WM3619 = test system: WM3619
WM451Lu = test system: WM451Lu
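Also: cell number obtained by counting DAPI-stained nuclei in high-throughput microscope images with image analysis software, screen run in 1,536-well plates.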

SMILES	cell count (MZ2-MEL)	cell count (MeWo)	cell count (RPMI7951)	cell count (RVH-421)	cell count (SkMel28)	cell count (SkMel2)	cell count (SkMel30)	cell count (SkMel5)	cell count (UACC257)	cell count (UACC62)	cell count (WM115)	cell count (WM1716)	cell count (WM1745)	cell count (WM3526)	cell count (WM3619)	cell count (WM451Lu)
CN1CCN(c2ccc3nc(-c4c(N)c5c(F)cccc5[nH]c4=O)[nH]c3c2)CC1 [Dovitinib] + CCN(CC)CCCCNc1ncc2cc(-c3cc(OC)cc(OC)c3)c(NC(=O)NC(C)(C)C)nc2n1 [PD173074] (first compound 0.1 µM, partner dose 0.1 µM)	96.3%	96.5%	127%	100%	89.5%	101%	80.5%	107%	102%	117%	108%	121%	93.6%	91.1%	120%	98.1%
C=CCNC1=C2C[C@@H](C)C[C@H](OC)[C@H](O)[C@@H](C)/C=C(\C)[C@H](OC(N)=O)[C@@H](OC)/C=C\C=C(/C)C(=O)NC(=CC1=O)C2=O [Tanespimycin] + c1cc(-c2cnn3cc(-c4ccc(OCCN5CCCCC5)cc4)cnc23)ccn1 [Dorsomorphin] (first compound 0.002 µM, partner dose 0.4 µM)	106%	104%	94.4%	162%	111%	107%	114%	97.3%	87.7%	97.6%	88.2%	96.2%	95.2%	103%	85.6%	93.2%
C=CCNC1=C2C[C@@H](C)C[C@H](OC)[C@H](O)[C@@H](C)/C=C(\C)[C@H](OC(N)=O)[C@@H](OC)/C=C\C=C(/C)C(=O)NC(=CC1=O)C2=O [Tanespimycin] + C=CCn1c(=O)c2cnc(Nc3ccc(N4CCN(C)CC4)cc3)nc2n1-c1cccc(C(C)(C)O)n1 [MK1775] (first compound 0.002 µM, partner dose 0.02 µM)	104%	109%	86.3%	99.8%	79.1%	83.6%	87.9%	71.9%	76.8%	81.4%	83.7%	88.9%	80.6%	67.2%	70.4%	96.5%
CS(=O)(=O)CCNCc1ccc(-c2ccc3ncnc(Nc4ccc(OCc5cccc(F)c5)c(Cl)c4)c3c2)o1 [lapatinib] + Oc1nc(-c2ccc(C(F)(F)F)cc2)nc2c1CSCC2 [XAV939] (first compound 0.8 µM, partner dose 2 µM)	89.2%	100%	88.8%	87.8%	88.1%	93.5%	81.9%	82.8%	84.5%	96.3%	96.2%	83.9%	89.7%	94.3%	85.6%	110%
C[C@@H](Oc1cc(-c2cnn(C3CCNCC3)c2)cnc1N)c1c(Cl)ccc(F)c1Cl [Crizotinib] + O=C(O)[C@@H]1[O][Sb](=[O])([O][Sb]2(=[O])[O][C@H]([C@H](O)CO)[C@H](O)[C@H](C(=O)O)[O]2)[O][C@H]([C@H](O)CO)[C@@H]1O [stibogluconate] (first compound 0.2 µM, partner dose 2 µM)	97.9%	108%	117%	99.3%	97.5%	92.2%	99.6%	–	–	93.4%	105%	114%	112%	94.4%	96.5%	98.2%
CNC(=O)c1cc(Oc2ccc(NC(=O)Nc3ccc(Cl)c(C(F)(F)F)c3)cc2)ccn1 [sorafenib] + O=C(O)c1ccc2c(c1)nc(Nc1cccc(Cl)c1)c1ccncc12 [CX4945] (first compound 0.4 µM, partner dose 0.4 µM)	88.2%	98.1%	103%	91.2%	99.4%	89.2%	103%	–	–	103%	97.2%	90.9%	89.8%	91.8%	110%	101%
C=CCNC1=C2C[C@@H](C)C[C@H](OC)[C@H](O)[C@@H](C)/C=C(\C)[C@H](OC(N)=O)[C@@H](OC)/C=C\C=C(/C)C(=O)NC(=CC1=O)C2=O [Tanespimycin] + Cn1c(Nc2ccc(C(F)(F)F)cc2)nc2cc(Oc3ccnc(-c4ncc(C(F)(F)F)[nH]4)c3)ccc21 [CHIR265] (first compound 0.002 µM, partner dose 0.08 µM)	77.9%	55.9%	45%	68.2%	58.2%	83.6%	62.7%	–	–	53.9%	56.2%	85.2%	66.3%	66.2%	65.9%	99.6%
C=CCNC1=C2C[C@@H](C)C[C@H](OC)[C@H](O)[C@@H](C)/C=C(\C)[C@H](OC(N)=O)[C@@H](OC)/C=C\C=C(/C)C(=O)NC(=CC1=O)C2=O [Tanespimycin] + Cc1nc(Nc2ncc(C(=O)Nc3c(C)cccc3Cl)s2)cc(N2CCN(CCO)CC2)n1 [dasatanib] (first compound 0.002 µM, partner dose 0.004 µM)	95.3%	91.5%	62.9%	84.8%	112%	95.4%	96.1%	–	–	87.5%	88.9%	99%	49.2%	83.2%	64.8%	86.3%
CN1CCN(c2ccc3nc(-c4c(N)c5c(F)cccc5[nH]c4=O)[nH]c3c2)CC1 [Dovitinib] + C[C@]1(c2nc3c(C(N)=O)cccc3[nH]2)CCCN1 [Veliparib] (first compound 0.1 µM, partner dose 1.4 µM)	90.4%	89.4%	110%	107%	79.8%	107%	56.2%	–	–	73.3%	87.5%	74.7%	72.6%	82.5%	108%	84.5%
